Laboratory results taken from the supplement of paper PMC3724861.
Some of the results follow.

tested on: T1, Caupolican (Caup) homeodomain DNA-binding domain; test: PBM E-score (8-mer, recovered from the published 9-mer minima) (E-score (dimensionless, -0.5 to 0.5)); Drosophila protein; higher = stronger relative binding preference, active = 0.31 or more
T1 sequence: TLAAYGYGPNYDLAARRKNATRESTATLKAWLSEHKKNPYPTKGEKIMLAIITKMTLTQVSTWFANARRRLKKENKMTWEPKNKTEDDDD
How it was run: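 Caup's homeodomain DNA-binding domain (residues 214-303) was produced by in vitro transcription and translation and applied at 100 nM to custom-designed protein binding microarrays. Each value is an enrichment score giving relative binding preference for a short DNA word; higher means stronger. Published 9-mer scores were the minimum of their two constituent 8-mer scores, and the 8-mer values were recovered from those minima. A cutoff of 0.31 marks candidate binding sequences.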

| Sequence | PBM E-score |
| --- | --- |
| AAAAGCCC | inactive: -0.152 |
| GGGTTCTA | inactive: -0.18 |
| AAAGCTTG | inactive: -0.00031 |
| GCGCAGGA | inactive: -0.236 |
| AATACCCT | inactive: -0.0149 |
| CATACGAG | inactive: 0.0982 |
| CTTCTATA | inactive: 0.0409 |
| CCTTACCC | inactive: -0.133 |
| AAAGTCTG | inactive: 0.0248 |
| CTCCGGTA | inactive: -0.0601 |
| CTGTTCAC | inactive: 0.147 |
| CATCAATG | inactive: 0.122 |
| CACTGACA | inactive: 0.191 |
| TCAGCTCA | inactive: -0.0739 |
| CTCCGCTC | inactive: -0.188 |
| ACACGGCA | inactive: 0.196 |
| ATGCTTCC | inactive: 0.0143 |
| ATTACCCG | inactive: 0.0487 |
| AAGGAATC | inactive: 0.0695 |
| GTTAGCGA | inactive: 0.0994 |
| ACACCTGA | inactive: 0.169 |
| ACAGGCAG | inactive: 0.0868 |
| ACCTTATC | inactive: -0.00398 |
| GCCTTCTA | inactive: -0.229 |
| AGCCTCAA | inactive: -0.153 |

| Sequence | PBM E-score |
| --- | --- |
| AAGACGGT | ≥ -0.03 |
| CCGGTGGC | inactive: -0.284 |
| GTTGTGCA | inactive: 0.0605 |
| GTTTTTGA | inactive: 0.084 |
| ACGGCATC | inactive: -0.0217 |
| ACCCAATG | inactive: 0.00581 |
| ATGTACTC | inactive: 0.303 |
| CCCACCCG | inactive: -0.0964 |
| AACTTCGT | inactive: 0.0347 |
| CTGAAAAG | inactive: -0.0538 |
| CAGGACCA | inactive: -0.116 |
| ATCCATGA | inactive: 0.0343 |
| CCGTGGCC | inactive: -0.32 |
| AGCCGAAG | inactive: -0.174 |
| GAGCGTAC | inactive: 0.0018 |
| AGCGATTA | inactive: 0.0554 |
| ATTGCCAC | inactive: 0.0589 |
| GAACGTTC | ≥ 0.0202 |
| CCTTGCAC | inactive: 0.0128 |
| CTGAGCAA | inactive: 0.0176 |
| ATCGTGCC | inactive: -0.0475 |
| TCCAACCA | inactive: -0.042 |
| ATCTAGGG | inactive: 0.0243 |
| GAGTGAAA | inactive: 0.0402 |
| GACGTCTC | inactive: -0.0958 |

| Sequence | PBM E-score |
| --- | --- |
| ATTTAGGC | inactive: 0.0503 |
| ACCAAAAA | inactive: 0.0475 |
| AACCAAAC | inactive: -0.0845 |
| AGCACACC | inactive: -0.0258 |
| AGGCTCCC | inactive: -0.236 |
| CAGATCTC | inactive: -0.0544 |
| AATGGGGT | ≥ 0.0023 |
| CTGGAGCC | inactive: -0.202 |
| ACCCCGGT | inactive: -0.137 |
| CCTACAGA | inactive: -0.0403 |
| ATCCTAGG | inactive: -0.0799 |
| AGCGAGAT | inactive: -0.119 |
| CGAGCACG | inactive: -0.067 |
| GCAAACCA | inactive: 0.0628 |
| ATCGCTTC | inactive: -0.0151 |
| CTTAAGGC | inactive: -0.217 |
| ATTTGGGC | inactive: -0.0771 |
| GCCGAGGC | inactive: -0.148 |
| CGTAGTTC | inactive: -0.033 |
| GGTTAAAC | inactive: 0.0743 |
| CAACCACG | inactive: 0.17 |
| GGTTATAA | inactive: 0.118 |
| CTATGCCA | inactive: 0.0515 |
| GCTAAACA | inactive: 0.132 |
| CTGCAGGC | inactive: -0.159 |

| Sequence | PBM E-score |
| --- | --- |
| AAAGGCGT | inactive: -0.125 |
| GCCTCAAA | inactive: -0.112 |
| AACCAAGG | inactive: -0.00969 |
| AAGCCTAT | inactive: -0.0364 |
| GAAGCGAC | inactive: -0.0318 |
| ATCGTGGA | inactive: -0.0656 |
| CGAGGATA | inactive: -0.00954 |
| AGAGGGTG | inactive: -0.0938 |
| GCCGCGTA | inactive: -0.184 |
| AACTGGTC | inactive: 0.0358 |
| AGTAGGCC | inactive: -0.0636 |
| CTAGCGGC | inactive: -0.248 |
| GTAGCTAA | inactive: 0.0032 |
| CAGGCAGA | inactive: -0.0719 |
| CATGCCTC | inactive: -0.00058 |
| AGCCTTCG | inactive: -0.183 |
| CATGCTCA | inactive: 0.139 |
| TGCAAGCA | inactive: -0.0266 |
| CGTCATTC | inactive: 0.0425 |
| AGTCGTCG | inactive: -0.112 |
| GTCTGCGA | inactive: -0.0103 |
| AGATGATC | inactive: 0.00803 |
| CCATAGGG | inactive: -0.0973 |
| CTAAGTGC | inactive: -0.0672 |
| ACTGCCCA | ≥ -0.0495 |

| Sequence | PBM E-score |
| --- | --- |
| CGTGAAAG | inactive: 0.0327 |
| ATGCGCAA | inactive: -0.0346 |
| ATTATCCC | ≥ 0.12 |
| ACCAGCTA | inactive: 0.0236 |
| AGCAGTTG | inactive: 0.00467 |
| AAACGTGA | inactive: 0.0748 |
| GCTCCCAA | inactive: -0.177 |
| ACTGGTAA | inactive: 0.1 |
| GCTCGCCA | inactive: -0.167 |
| GCCGCAGA | inactive: -0.21 |
| CATTTCAG | inactive: 0.00691 |
| ACATTGTA | inactive: 0.302 |
| GGCCACAC | inactive: -0.0674 |
| TCGTTGCA | inactive: 0.0137 |
| TAACAAAA | inactive: 0.119 |
| AAGCCAAT | inactive: 0.0338 |
| CACAGGCG | inactive: -0.13 |
| GCAGATGC | inactive: -0.0883 |
| GTCCGCCA | inactive: -0.0585 |
| TTGCTAAA | inactive: -0.0511 |
| AATGCTTG | inactive: 0.133 |
| GCAAGGCA | inactive: -0.151 |
| GGAAACAC | inactive: 0.197 |
| ACGTGGCT | inactive: -0.0299 |
| AGAGTTGC | inactive: -0.0805 |

| Sequence | PBM E-score |
| --- | --- |
| ATATGGCC | inactive: 0.00585 |
| GAAAACTA | inactive: 0.0925 |
| AGCTAAAT | inactive: -0.0262 |
| CGGAGAGC | inactive: -0.177 |
| CGGGCGTC | inactive: -0.237 |
| CTCGATTA | inactive: 0.108 |
| CGATTGTA | inactive: 0.222 |
| ATTGCCTC | inactive: 0.0151 |
| CAAGGGTA | inactive: 0.0428 |
| CATACACC | inactive: 0.15 |
| AGGCTGCC | inactive: -0.295 |
| TATGTTCA | active: 0.324 |
| AACGTTGA | inactive: -0.0105 |
| TGCACCAA | inactive: -0.0498 |
| AACACACG | inactive: 0.248 |
| ACGACCCT | inactive: -0.0829 |
| CACCTCTG | inactive: -0.0318 |
| AGGTGGTA | inactive: 0.0814 |
| GCGAATGA | inactive: 0.0464 |
| ACGTTTCT | inactive: 0.0569 |
| AATCCAAC | inactive: 0.0622 |
| CTCTCCAC | inactive: -0.142 |
| CGCGATCA | ≥ 0.0727 |
| CCTATTAC | inactive: 0.17 |
| GCAGTAGA | inactive: -0.0281 |

| Sequence | PBM E-score |
| --- | --- |
| CTGTGTCA | inactive: 0.142 |
| AGATGCCC | inactive: -0.129 |
| AAGCAAAG | inactive: -0.0891 |
| CGTCTTTC | inactive: -0.0945 |
| CGACGAAC | inactive: -0.0229 |
| ACTTTCTG | inactive: 0.034 |
| CGCTTATA | inactive: -0.0421 |
| TCACGAAA | ≥ 0.148 |
| ATCTAGGC | inactive: -0.0579 |
| ACGCTTCG | inactive: -0.057 |
| CGCCGGCC | inactive: -0.24 |
| AGACTCCT | inactive: -0.148 |
| CACTCCAC | inactive: -0.0577 |
| TGCCTCAA | inactive: -0.208 |
| AGACTCCC | inactive: -0.218 |
| CCCTTCGG | inactive: -0.276 |
| AAGGCTCG | inactive: -0.0926 |
| ACTACCGC | inactive: -0.0702 |
| CAACCTGC | inactive: -0.0591 |
| ACCGCGGC | inactive: -0.193 |
| ATCATGAA | inactive: 0.0136 |
| GAATGTGC | inactive: -0.00831 |
| ACTGGACC | inactive: -0.159 |
| GGCCCAAA | inactive: -0.204 |
| AAGACATG | active: 0.381 |

| Sequence | PBM E-score |
| --- | --- |
| CAGCGCAA | inactive: -0.0907 |
| CTTGGGGC | inactive: -0.289 |
| CGGGCCAG | inactive: -0.233 |
| AGATAAAC | inactive: 0.0686 |
| CAGTCCAG | inactive: -0.109 |
| CGTAAGCA | inactive: -0.101 |
| CAGCAGCG | inactive: -0.121 |
| CCTGCGAC | inactive: -0.204 |
| CCACACCG | inactive: -0.106 |
| AGCCTCTC | ≥ -0.0654 |
| AGCCAGGG | inactive: -0.276 |
| ACTGGATG | inactive: 0.0787 |
| AATGCAGT | inactive: 0.00542 |
| CCATGTGC | inactive: -0.0035 |
| GACCCCAA | inactive: -0.155 |
| ACAGTTAT | inactive: 0.0946 |
| AGCTAGCA | inactive: -0.064 |
| AGGTCGGG | inactive: -0.168 |
| GACGCTCA | inactive: -0.118 |
| GCAGAAGC | inactive: -0.155 |
| AGTTTAAA | inactive: 0.169 |
| ATGAGGGA | inactive: -0.0343 |
| AGATGTTG | inactive: 0.203 |
| GAGAGTAA | inactive: 0.0295 |
| ATAGGTTG | inactive: 0.029 |

| Sequence | PBM E-score |
| --- | --- |
| ACCACGCT | inactive: -0.0652 |
| GCCCGAGC | inactive: -0.233 |
| ATCGTTAC | inactive: 0.132 |
| TCACATAA | inactive: 0.182 |
| ACAATGTA | inactive: 0.285 |
| ACGAGGTG | inactive: 0.0761 |
| ATAAAATC | inactive: 0.139 |
| CAAGTATC | inactive: 0.148 |
| CATCAGGC | inactive: -0.0398 |
| GCTTCGTA | inactive: -0.0161 |
| ACATCGCA | inactive: 0.233 |
| CAAGATGC | inactive: 0.0683 |
| ATATGCTG | inactive: 0.0997 |
| GCAATACA | inactive: 0.157 |
| CCCCCATA | inactive: -0.224 |
| GCCCGTTA | inactive: -0.144 |
| ACGGGCGC | inactive: -0.222 |
| CTCTACGC | inactive: -0.116 |
| CAGCCTAC | inactive: -0.0621 |
| CCTCGCCG | inactive: -0.253 |
| CGCGGGCA | ≥ -0.0686 |
| AAGCGCTA | inactive: -0.0416 |
| AATTAACT | inactive: 0.117 |
